# Out of some 310,000 compounds screened, about 2,200 (0.71%) showed an effect of 50% or more. Effects have a minus sign here. The list shows a part of the results.
# Target: human ether-à-go-go-related gene (hERG) potassium channel (human, UniProt Q12809)
# Experiment: primary screen, population patch clamp on CHO cells stably expressing hERG
# Sequence of human ether-à-go-go-related gene (hERG) potassium channel (Q12809 whole entry, looked up): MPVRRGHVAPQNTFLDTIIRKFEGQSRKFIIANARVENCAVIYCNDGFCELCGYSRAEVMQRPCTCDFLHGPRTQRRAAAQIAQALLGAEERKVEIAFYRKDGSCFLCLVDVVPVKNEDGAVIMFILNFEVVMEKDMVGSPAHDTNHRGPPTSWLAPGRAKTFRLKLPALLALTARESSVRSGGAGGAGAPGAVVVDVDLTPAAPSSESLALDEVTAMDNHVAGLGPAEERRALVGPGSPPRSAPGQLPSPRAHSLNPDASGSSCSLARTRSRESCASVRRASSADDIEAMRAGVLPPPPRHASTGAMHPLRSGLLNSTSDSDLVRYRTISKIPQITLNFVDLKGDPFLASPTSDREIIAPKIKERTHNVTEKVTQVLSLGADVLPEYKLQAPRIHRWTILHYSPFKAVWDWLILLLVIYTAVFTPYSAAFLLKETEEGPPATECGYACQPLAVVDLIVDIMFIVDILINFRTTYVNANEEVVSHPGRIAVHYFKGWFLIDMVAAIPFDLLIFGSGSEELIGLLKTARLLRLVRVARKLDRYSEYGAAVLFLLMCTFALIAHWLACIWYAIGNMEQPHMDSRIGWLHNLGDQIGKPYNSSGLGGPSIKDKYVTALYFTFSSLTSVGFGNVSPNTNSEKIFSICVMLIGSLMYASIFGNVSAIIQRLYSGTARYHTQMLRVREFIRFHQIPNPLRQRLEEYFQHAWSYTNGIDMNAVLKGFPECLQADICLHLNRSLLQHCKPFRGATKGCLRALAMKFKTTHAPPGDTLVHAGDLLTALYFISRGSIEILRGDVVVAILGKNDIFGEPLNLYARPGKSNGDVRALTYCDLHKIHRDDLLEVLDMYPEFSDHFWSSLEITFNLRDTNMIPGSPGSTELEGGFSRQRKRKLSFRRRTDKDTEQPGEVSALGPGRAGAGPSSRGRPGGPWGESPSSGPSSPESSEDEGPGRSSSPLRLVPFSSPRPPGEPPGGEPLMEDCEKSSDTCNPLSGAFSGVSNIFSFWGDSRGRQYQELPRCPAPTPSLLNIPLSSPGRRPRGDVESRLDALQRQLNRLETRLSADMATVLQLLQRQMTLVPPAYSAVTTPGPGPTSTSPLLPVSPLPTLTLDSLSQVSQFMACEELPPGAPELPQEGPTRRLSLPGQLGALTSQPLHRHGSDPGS
row,Compound,"hERG current change (%, negative = inhibition) at 1uM [%]"
1,CCCn1nnnc1SCC(=O)N1CCCCC1,12.1
2,CCOc1ccc(NC(=S)NC(=O)c2ccco2)cc1,13
3,Cc1cc(C)nc(Nc2ccc(C)c([N+](=O)[O-])c2)n1,16.2
4,CCOC(=O)N1CCN(C(=O)CCN2C(=O)COc3ccccc32)CC1,3.45
5,CCCn1nnnc1NC(=O)COc1ccc(Cl)cc1C,0.821
6,O=S(=O)(c1ccc(N2CCN(Cc3ccccc3)CC2)nc1)N1CCCC1,-3.39
7,COc1ccc(N2C(=O)C(CC(=O)Nc3ccccc3)N(Cc3cccs3)C2=O)cc1 (stereo not shown),9.7
8,CC(C)(C)OC(=O)NCCCCCO,15.2
9,CN1OC(COC(=O)c2ccc(Cl)cc2Cl)CC1c1ccccc1 (stereo not shown),10.8
10,Cc1cc(OCCCCn2ccnc2)cc(C)c1Cl.Cl,10.7
11,CN(C)CCCNC(=O)c1ccc(Oc2ccccc2)cc1.Cl,17.6
12,O=C(O)c1oc2ccccc2c1CSCc1ccccc1,6.49
13,CC1CCC(C(=O)NC(C(=O)NCc2cccnc2)C(C)C)CC1 (stereo not shown),3.13
14,CCOC(=O)N1CCN(c2nc3ccccc3nc2C(C#N)S(=O)(=O)c2ccc(C)cc2)CC1 (stereo not shown),5.08
15,CN(C)C(=O)C#Cc1ccccc1,11.4
16,CC1=CC(=C(C#N)C#N)C=C(C)N1Cc1ccccc1,7.05
17,COc1ccc(-c2nc(CS(=O)CC(=O)NC3CCCC(C)C3C)c(C)o2)cc1OC (stereo not shown),14.1
18,CN(Cc1nccn1C)C(=O)c1cc(COc2cccc(C(F)(F)F)c2)on1,8.98
19,CC(=O)/C=C/c1ccccc1O,14.6
20,O=C1N/C(=C/c2ccc(N3CCOCC3)o2)C(=O)N1c1ccccc1,6.75
21,CCC(C(N)=NCCc1ccc(OC)c(OC)c1)c1ccccc1.Cl (stereo not shown),2.38
22,C/C(=N\NC(=O)C1CCCC1)c1ccc(Cl)cc1,9.87
23,CCC1CCCCN1S(=O)(=O)c1ccc(S(=O)(=O)N2CCN(S(=O)(=O)CC)CC2)cc1 (stereo not shown),2.64

row,Compound,"hERG current change (%, negative = inhibition) at 1uM [%]"
1,COCCCNC(=S)N1CCN(c2nc(-c3ccc(F)cc3)cs2)CC1,5.43
2,CC(=O)C1=C(C)NC(=O)NC1c1cccc([N+](=O)[O-])c1O (stereo not shown),29.9
3,CC1CCCCC1NC(=O)C1CCC(CNc2c(N3CCCCC3)c(=O)c2=O)CC1 (stereo not shown),16.8
4,CCOC(=O)C1CCN(C(=O)c2cc(C)n(C(C)(C)C)n2)CC1,13
5,COC(=O)[C@H](CCSC)NC(=O)NCc1ccc(S(N)(=O)=O)cc1,-0.982
6,O=C(Nc1ccc(-c2ccco2)cc1)C1CCCN(Cc2ccc(CO)o2)C1 (stereo not shown),2.15
7,C/C(=N\NC(=O)c1nnn(-c2nonc2N)c1-c1ccc2c(c1)OCO2)c1ccc(F)cc1,13.2
8,O=C1CC(c2ccc(O)c(O)c2)Oc2cc(O)cc(O)c21 (stereo not shown),5.31
9,Cc1cc2oc(=O)cc(CN3CCOCC3)c2cc1C,2.35
10,CCN(CC)S(=O)(=O)c1ccc(C(=O)Nn2cnnc2)cc1,10.5
11,COCCNC(=O)CN(c1ccccc1OC)S(C)(=O)=O,7.99
12,CCCCCCn1c(O)c(C=NC2CCCCC2N)c(=O)[nH]c1=O (stereo not shown),12.2
13,c1ccc2c(c1)ncn2-c1ccc(-c2ccnc(-c3ccncc3)n2)cc1,10.8
14,O=C(Nc1ccc(N2CCN(C(=O)c3ccc(Cl)cc3)CC2)cc1)c1cc2ccccc2o1,-1.08
15,CC(=O)Nc1ccc(-c2ccc3nnc(C)n3n2)cc1,11.4
16,O=C(NC1CCCCC1)[C@H](CSCc1ccccc1)N1Cc2ccccc2C1=O,-41.6
17,CCN(CC)c1ccc(NC(=O)CN2C(=O)CSc3ncccc32)c(C)c1,4.2
18,O=C(Cc1c(F)cccc1Cl)N1CCCC1,17.5
19,Cc1ccc(Nc2nc(-c3sc(C)nc3C)cs2)cc1,14.6
20,O=C(c1ccccc1)c1ccc2nc[nH]c2c1,9.84
21,O=C(Cc1ccc(S(=O)(=O)N2CCOCC2)s1)Nc1nc2c(s1)CCCC2,5.04
22,COc1ccc(-c2nnc(-c3ccccc3O)o2)cc1,4.22
23,CCOC(=O)c1c(NC(=O)CN2CCCc3ccccc32)sc(C)c1C,12.1

row,Compound,"hERG current change (%, negative = inhibition) at 1uM [%]"
1,S=c1[nH]nc(-c2ccc3ccccc3n2)n1-c1cc(Cl)cc(Cl)c1,3.9
2,O=C(NC1CCCCC1)C1Cc2ccccc2CN1S(=O)(=O)c1ccc(F)cc1 (stereo not shown),0.72
3,CCC1=NN(C(=O)Cc2ccccc2)C(O)(c2ccncc2)C1 (stereo not shown),15.1
4,NS(=O)(=O)c1ccc(NC(=O)c2ccc(CNS(=O)(=O)c3cc(C(F)(F)F)ccc3Cl)cc2)cc1,10.3
5,COc1ccc(/C(C)=N/NC(=S)NCCc2ccccc2)c(O)c1,16.3
6,O=C(/C=C/c1ccc([N+](=O)[O-])cc1)NCc1ccc2c(c1)OCO2,7.18
7,CC(=O)N/C(=C\c1ccc(C)cc1)C(=O)O,15.4
8,CC1CCN(C(=O)Cn2ncc3c4ccccc4n(C)c3c2=O)CC1,12.8
9,NNC(=O)Cc1cn(-c2ncc(C(F)(F)F)cc2Cl)c2ccccc12,3.78
10,O=c1ccc(Cl)n[nH]1,12.6
11,CC(=O)N1CCC(CCCC2CCN(C(C)=O)CC2)CC1,7.19
12,C/C(=N\NC(=O)c1cccc(S(=O)(=O)Nc2ccccc2Cl)c1)c1ccco1,7.13
13,Cc1ccc(S(=O)(=O)N2CC(O)CC2C(=O)NCc2ccc3c(c2)OCO3)cc1 (stereo not shown),8.6
14,CN(c1ccccc1)S(=O)(=O)c1ccc(Cl)c(C(=O)NC2=NCCS2)c1,15.1
15,CN(C)C(CNC(=O)CCc1nc2ccccc2s1)c1ccccc1 (stereo not shown),15.4
16,CC(C)c1ccc(NC(=O)CCCN2C(=S)NC(C)(C)CC2C)cc1 (stereo not shown),2.22
17,O=[N+]([O-])NC1=NCN(Cc2ccco2)CN1Cc1ccco1,5.75
18,Cc1cc2c(c(=O)n1Cc1ccccn1)C(C(C)C)C(C#N)=C(N)O2 (stereo not shown),0.864
19,O=C(O)CCC(=O)N1CCc2cc(S(=O)(=O)NC3CCCC3)ccc21,15
20,Cc1ccccc1NC(=O)Cc1nc(CSc2nnc(-c3ccc4c(c3)OCO4)o2)cs1,14
21,CCS(=O)(=O)N1CCC(C(=O)NCc2cccs2)CC1,5.4
22,O=C(Nc1ncc2c(n1)CC(c1ccco1)CC2=O)c1ccccc1 (stereo not shown),1.14
23,O=C(O)c1cc(Cl)c(Cl)cc1C(=O)N(Cc1ccccc1)Cc1ccccc1,15.8

row,Compound,"hERG current change (%, negative = inhibition) at 1uM [%]"
1,O=C(Nc1cccc(S(=O)(=O)N2CCOCC2)c1)c1ccccc1[N+](=O)[O-],1.86
2,c1ccc2c(c1)OCCc1c-2[nH]c2ccccc12,13.2
3,Cl.c1ccc2c(c1)c1c3n2CCNC3CCC1 (stereo not shown),3.95
4,CC(=O)Nc1ccccc1OC(C)C(=O)NC(C)c1ccc(F)cc1 (stereo not shown),8.06
5,O=C(N/C(=C\c1ccco1)C(=O)N1CCOCC1)c1ccc([N+](=O)[O-])cc1,-55.9
6,CCc1ccc2[nH]c(=O)c(CN(Cc3ccc(F)cc3)C(c3nnnn3CCN3CCOCC3)C(C)C)cc2c1 (stereo not shown),5.2
7,CCCOc1ccccc1C(=O)N(Cc1ccco1)C1CCS(=O)(=O)C1 (stereo not shown),7.82
8,COc1ccc(-n2nc(C)cc2Nc2ccccc2C(=O)O)cc1,12.3
9,Cc1cc(O)c(-c2cc(C(=O)NCc3ccc4c(c3)OCO4)[nH]n2)cc1C,-0.92
10,C=CCOn1c(C)c(C(C)=O)c2c3no[n+]([O-])c3ccc21,1.03
11,C=CCn1c(SCC(=O)N2CCc3ccccc3C2)nnc1-c1ccncc1,-1.64
12,COc1ccc(CC(=O)OC(C)CN2CCCC2)cc1.Cl (stereo not shown),11.8
13,CCC(CC)C(=O)Nc1c2c(nn1-c1ccc(C)cc1)CS(=O)(=O)C2,5.47
14,CC(C)C[C@@H](CSc1ccccc1)N1CCN(CC(C)C)CCC1=O,-45.1
15,CCC(C(=O)NC(C)(C)C)N(C(=O)Cn1nnc(-c2ccccc2F)n1)c1cccc2c1CCCC2 (stereo not shown),-1.6
16,COc1ccc(OC)c(NC(=O)CN2C(=O)c3ccccc3S2(=O)=O)c1,4.15
17,Br.Cc1cc(C)nc(SCc2csc(-c3ccccc3)n2)n1,31.6
18,Nc1ccc(S(=O)(=O)N2CC3CC(C2)c2cccc(=O)n2C3)cc1 (stereo not shown),4.49
19,C=CCn1c(O)c(C(C)=NCCCO)c(=O)[nH]c1=O,1.37
20,CC(C)(CNC(=O)c1ccc(S(=O)(=O)Nc2ccccc2F)cc1)N1CCOCC1,13.6
21,Cc1ccc(C)c(NC(=S)NNC(=O)c2cc3c(s2)CCC(C)C3)c1 (stereo not shown),4.05
22,CCC1CCCCN1CCCNC(=O)Cn1ncc2c([nH]c3ccc(C)cc32)c1=O (stereo not shown),4.73
